This is an account of results in PubChem BioAssay AID463173 (ICCB-Longwood Screening Facility, Harvard Medical School, 2010).

The whole screen tested about 52,000 compounds, of which about 1,700 (3.3%) were called active. No stated cut-off is given here; in the data, active means survival mostly below about 52% (no sharp cut-off); inactive means mostly above about 56%. The list shows a part of the results.

The test system of the assay is Wild type. The experiment in a line: S. aureus survival, RN4220 and DeltatarO strains – OD600, teichoic acid synthesis inhibitors, primary screen (AID 463173). The settings on record: S. aureus RN4220 wild type/DeltatarO growth, OD600, 18 h, stronger effect = lower value, screened at 18.75 µg/mL (by protocol).
Take `Cc1ccc(Cc2nc3ccccc3nc2SCC(=O)N2CCN(c3ccc(F)cc3)CC2)cc1`: the survival was inactive: 118%.
The same measure for `CCOC(=O)c1noc2nc(C)n(Cc3cccc([N+](=O)[O-])c3)c(=O)c12`: inactive: 159%; for `COCCn1cc(C(=O)NCCCOC(C)C)c2c3ccccc3n(C)c2c1=O`: inactive: 114%.
Regarding `COc1ccc(CNC(=O)Cc2ccc(NC(=O)N3CCSc4ncccc43)cc2)cc1`, the survival was inactive: 78%.
The same measure for `CC(C)n1nc(CC(=O)O)c2ccccc2c1=O`: inactive: 103%.
The figure for `CCc1ccc(-n2nc(C)c3c(C)cc(=O)n(CC(=O)Nc4ccc(F)cc4C)c32)cc1` is inactive: 73%; for `Cc1nnc(SCC(=O)NCc2ccccc2Cl)c2nn(-c3ccccc3)c(C)c12` it is inactive: 127%; for `CCc1nn(CC(=O)NC(C)CCc2ccccc2)c(=O)c2cc3c(OC)cccc3n12` (stereo not drawn) it is inactive: 96%.
Turning to `CCOC(=O)Cn1c(=O)n(C2CCCCC2)c2nc(-c3ccc(C(C)C)cc3)nc(C(N)=O)c21`, the survival was inactive: 55%.
The figure for `Cc1ccc2c(CN3CCN(C(=O)c4ccc(Br)cc4)CC3)cc(=O)oc2c1` is inactive: 84%.
The figure for `Cc1ccc(S(=O)(=O)N2CCc3cc(C(=O)Nc4c(F)cccc4F)ccc32)cc1` is inactive: 86%; for `CCC(C(=O)N1CCN(c2cc(C)ccc2C)CC1)n1nc(C)n2c(cc3occc32)c1=O` (stereo not drawn) it is inactive: 53%.
For the compound `Cc1nc(NCC2CCCO2)c2c3c(sc2n1)CCC3` (stereo not drawn), the survival is inactive: 110%.
The figure for `COc1ccccc1NC(=O)CSC1=Nc2ccccc2C2=NC(CC(=O)NCc3ccccc3)C(=O)N12` (stereo not drawn) is inactive: 70%.
The figure for `CCOc1ccc(NC(=O)C2CCCN(c3nnc(C)c4c(C)n(-c5ccccc5)nc34)C2)cc1` (stereo not drawn) is inactive: 115%.
For `Cn1c(=O)c2c(nc(N3CCOCC3)n2Cc2ccc(Br)cc2)n(C)c1=O`, the survival was inactive: 71%.
The figure for `CCC(=O)N(c1nnc(-c2cc(OC)c(OC)c(OC)c2)s1)C1CCCC1` is inactive: 116%.
The figure for `COc1ccc(NC(=O)C2CCN(c3ccc(Sc4ccc(C)cc4)nn3)CC2)c(OC)c1` is inactive: 70%; for `Cc1ccc(CN2CCN(C3CCNCC3)C(=O)C2=O)cc1` it is inactive: 105%; for `CC(=N/O)/C(=N\O)c1ccc(C)o1` it is inactive: 100%.
The same measure for `O=C(CSc1ccc(-c2ccccn2)nn1)Nc1ccc(F)cc1F`: inactive: 82%.
On to `Cc1ccc(CN2CCN(C3CCN(C(=O)Nc4ccc(C)cc4Cl)CC3)C(=O)C2=O)cc1`, for which the survival is inactive: 95%.
The figure for `CC(=O)N1CCc2cc(CNC(=O)c3ccccc3Br)ccc21` is inactive: 85%.
The figure for `CCCCNS(=O)(=O)c1ccc(C)c(-c2nnc3c4ccccc4c(C)nn23)c1` is inactive: 79%; for `CNS(=O)(=O)c1cn(CC(=O)Nc2ccc(C(C)=O)cc2)cc1S(=O)(=O)NC` it is inactive: 73%.
Regarding `CC(=O)N1CCc2cc(S(=O)(=O)NC(Cc3ccccc3)C(=O)NCc3ccc(C)cc3)ccc21` (stereo not drawn), the survival is inactive: 81%.
Take `O=C(NCc1cccs1)C1CCN(C(=O)N2CCOc3ccc(Cl)cc32)CC1`: the survival is inactive: 85%.
Consider `O=C(Nc1ccc(Br)cc1)c1ccc(F)c(S(=O)(=O)N2CCc3ccccc32)c1`, for which the survival was inactive: 81%.
As for `CCC(=O)N1CCN(c2ccc(N)cc2)CC1`, the survival was inactive: 105%.
The same measure for `COc1ccc(CCNC(=O)C2CCN(S(=O)(=O)c3c(C)noc3/C=C/c3ccc(C)cc3)CC2)cc1OC`: inactive: 80%; for `Cc1ccc(S(=O)(=O)C(CNC(=O)C(=O)NCc2ccccc2C)c2cccs2)cc1` (stereo not drawn): inactive: 94%; for `CN1CCN(CC(=O)Nc2ccc(C(=O)NCC3CCCO3)cc2)CC1` (stereo not drawn): inactive: 108%.
The same measure for `O=C(OC(C(=O)NCc1ccc2c(c1)OCO2)c1ccncc1)c1ccc(Cl)nc1` (stereo not drawn): inactive: 106%; for `CCOC(=O)c1ccc(NC(=O)CCn2ccc(C)n2)cc1`: inactive: 110%; for `Cc1cc(C)c(Cn2c(C3CC(=O)N(c4ccc(F)cc4)C3)nc3ccccc32)c(C)c1` (stereo not drawn): inactive: 86%.
`CC(C)C(=O)NS(=O)(=O)c1ccc(NC(=O)c2ccco2)cc1`: the survival is inactive: 112%.
As for `CC(C)OC(=O)c1c(-c2ccccc2)c(-c2ccccc2)nn(C)c1=O`, the survival was inactive: 112%.
The same measure for `COc1cccc(NC(=O)CSc2nc(=O)n(Cc3ccncc3)c3c2CCC3)c1`: inactive: 68%; for `C=CC#CC(C)(C)c1ccc(O)c(C)c1`: inactive: 113%; for `CC1=C(C(=O)OC2C3CC4CC(C3)CC2C4)C(CC(=O)O)C(=O)N1` (stereo not drawn): inactive: 110%.
Regarding `CCNc1nc2c(c(=O)n(Cc3ccccc3)c(=O)n2C)n1Cc1ccccc1`, the survival is inactive: 125%.
With `CCOC(=O)N1CCC2(CC1)OC(=O)C(C)=C2C(=O)NCc1cccc(F)c1`, the survival was inactive: 45%.
The figure for `Cc1cc(C)c2c(NCc3ccc(N4CCCCC4)cc3)n[nH]c2n1` is inactive: 115%.
As to `CCCN1CCN(c2ncnc3sc(C(=O)Nc4c(C)cc(C)cc4C)c(C)c23)CC1`, the survival is inactive: 75%.
Turning to `CCCc1nc2sc3c(c2c(=O)n1N)CCCC3`, the survival is inactive: 93%.
The figure for `Cc1cccc(NC(=O)CN2C(=O)c3cccc4cccc2c34)c1C` is inactive: 61%.
The figure for `CCc1ccc(C(=O)c2cn(CC(=O)Nc3ccc(OC)cc3)c3cc4c(cc3c2=O)OCO4)cc1` is inactive: 72%; for `O=C(CSc1nnc2c3c4c(sc3ncn12)CCCC4)Nc1nccs1` it is inactive: 108%.
Regarding `O=C(Cn1nnc2c(cnn2-c2ccccc2)c1=O)N(c1ccccc1)c1ccccc1`, the survival was inactive: 108%.
The figure for `CCC1CN(S(=O)(=O)c2cc(-c3onc(C)c3C)ccc2C)c2cc(Cl)ccc2O1` (stereo not drawn) is inactive: 81%; for `NC(=O)C1(N2CCCCC2)CCN(C(=O)Nc2ccc(F)cc2F)CC1` it is inactive: 115%.
The same measure for `NS(=O)(=O)c1ccc(NC(=O)C(=O)Nc2ccc3nc4n(c(=O)c3c2)CCCCC4)cc1`: inactive: 89%; for `Cc1cc(NC(=O)C2CCN(S(=O)(=O)c3cccc4nsnc34)CC2)ccc1Br`: inactive: 79%; for `Cc1ccc(Cn2ccnc2SCC(=O)Nc2nc3ccccc3s2)cc1`: inactive: 125%.
For `Cc1cccc(-n2ncc3c(N4CCCC(C)C4)ncnc32)c1` (stereo not drawn), the survival is inactive: 77%.
The figure for `C#CCOc1ccc(C2CC(=O)Nc3c2c(C)nn3-c2nc(C)cc(C)n2)cc1` (stereo not drawn) is inactive: 79%.
The figure for `CCN=c1sc(C(=O)NCCc2ccccc2)cc(=O)n1CC` is inactive: 105%; for `Cc1cccc(C(=O)N2c3nc(-c4ccco4)nn3C3(CCCCC3)[C@@H]3CCCC[C@@H]32)c1` it is inactive: 76%.
The same measure for `O=c1ccc(-c2ccccc2)nn1Cc1ccc(F)cc1Cl`: inactive: 81%; for `CCOc1ccc2nc(N3CCCC(C(=O)Nc4cc(Cl)c(OC)cc4OC)C3)sc2c1` (stereo not drawn): inactive: 106%; for `Cc1c(C(=O)Nc2cccc(-c3nc4ccccc4s3)c2)oc2ccccc12`: inactive: 98%.
Take `COc1ccccc1NC(=O)N1CCN2C(=O)c3ccccc3C12c1ccccc1` (stereo not drawn): the survival was inactive: 111%.
As to `CCCCCCSc1nnc2c(n1)OC(C)Nc1ccc(Br)cc1-2` (stereo not drawn), the survival is inactive: 66%.
The same measure for `CCOC(=O)c1ccccc1NC(=O)COc1ccccc1-c1nnc(-c2ccccc2)o1`: inactive: 22%; for `CC(C)CNC(=O)c1ccc(CN2CCOCC2)cc1`: inactive: 101%.
The figure for `CSc1nn(Cc2cccc(C)c2)c(N)c1S(=O)(=O)c1ccccc1` is inactive: 130%.
The same measure for `COc1ccc(CNC(=O)c2ccc(NC(=O)N3CCSc4ccccc43)cc2)cc1`: inactive: 69%.
For `COc1cc(NC(=O)C(CC(C)C)NS(=O)(=O)c2ccc3c(c2)CCN3C(C)=O)cc(OC)c1` (stereo not drawn), the survival was inactive: 78%.
The figure for `CCc1ccc(CNCc2c(C(=O)O)n(Cc3ccc(C)cc3)c3cc(C)ccc23)cc1` is inactive: 27%; for `Cc1ccccc1Cn1c2ccccc2c2cnn(CC(=O)NC3CCC(C)CC3)c(=O)c21` (stereo not drawn) it is inactive: 78%.
As to `COc1cc2c(=O)n(CCC(=O)NCC3CCCO3)c(=O)n(CC(=O)Nc3ccc(C)cc3C)c2cc1OC` (stereo not drawn), the survival is inactive: 79%.
The same measure for `Cc1ccc2nc(-c3ccc(NC(=O)c4ccc(S(C)(=O)=O)cc4)cc3)sc2c1`: inactive: 63%; for `Cc1ccc(NC(=O)CC(C)S(=O)(=O)c2ccc3c(c2)NC(=O)CO3)c(Cl)c1` (stereo not drawn): inactive: 87%.
Consider `CC(C)c1ccc2oc(-c3ccc(NC(=O)c4cccc(Br)c4)cc3)nc2c1`, for which the survival was inactive: 70%.
The figure for `O=C(Nc1ccccc1C(F)(F)F)c1ccc2oc(=O)c(S(=O)(=O)c3ccc(F)cc3)cc2c1` is inactive: 93%; for `COc1ccc(NC(=O)c2c(NC(=O)COc3ccccc3)sc3c2CCC(C)C3)cc1` (stereo not drawn) it is inactive: 132%.
The figure for `O=C(NCCC1=CCCCC1)c1ccc2c(=O)n3nc(Nc4ccccc4)sc3nc2c1` is inactive: 72%.
The same measure for `Cc1cc(C)c2[nH]c(=O)c(CN(CC3CCCO3)C(=O)NC3CCCCC3)cc2c1` (stereo not drawn): inactive: 112%; for `Cc1ccc(NC(=O)CSc2nnc3[nH]c(=O)cc(-c4ccccc4)n23)cc1Cl`: inactive: 73%; for `COCCCNC(=O)c1cn(CCOC)c(=O)c2c1c1ccccc1n2C`: inactive: 89%.
Regarding `Cc1ccccc1CNC(=O)CN1C(=O)CSc2ccc(S(=O)(=O)N(C)C)cc21`, the survival is inactive: 68%.
For `COc1ccc(-c2noc(CCC(=O)Nc3ccc(C(F)(F)F)cc3)n2)cc1`, the survival is inactive: 84%.
The figure for `CC(=O)c1ccc(N2CCN(c3ncnc4c3nc3n4CCCC3)CC2)cc1` is inactive: 83%; for `Cc1ccc(CSc2oc(-c3cccs3)nc2S(=O)(=O)c2ccccc2)cc1` it is inactive: 64%.
The figure for `COc1ccccc1N1CCN(c2ncc3c(n2)CCN(Cc2ccccc2F)C3)CC1` is inactive: 67%; for `COc1ccc(CCNC(=O)Cc2c(C)c3c(cc(C)c4c(C)c(C)oc43)oc2=O)cc1` it is inactive: 87%.
The figure for `Cc1c(NC(=O)c2cc(-c3cccc(O)c3)on2)c(=O)n(-c2ccccc2)n1C` is inactive: 85%; for `CCOC(=O)N1CCc2c(sc3c2c(=O)n(Cc2ccccc2)c(=O)n3Cc2ccccc2Cl)C1` it is inactive: 83%.
